In PubChem BioAssay AID485344 (National Center for Advancing Translational Sciences (NCATS), 2010):
The campaign covered roughly 340,000 compounds. About 6,900 (2%) were called active. No stated cut-off is given here; in the data, active means inhibition above about 30%; inactive means below that, where a call was filed. The entries are a selection whose mix differs from that of the whole data set. The source gives no active or inactive call for entries shown without one.

biological target: D(2) dopamine receptor (Homo sapiens) (UniProt P14416); assay: HTS Assay for Allosteric Antagonists of the Human D2 Dopamine Receptor: Primary Screen for Antagonists; details: HEK293 TREx D2 cells, calcium flux, dopamine EC80; at 10 µM; stronger effect = higher value; further: 0% is about no effect
Sequence of UniProt P14416 (P14416 whole entry, looked up): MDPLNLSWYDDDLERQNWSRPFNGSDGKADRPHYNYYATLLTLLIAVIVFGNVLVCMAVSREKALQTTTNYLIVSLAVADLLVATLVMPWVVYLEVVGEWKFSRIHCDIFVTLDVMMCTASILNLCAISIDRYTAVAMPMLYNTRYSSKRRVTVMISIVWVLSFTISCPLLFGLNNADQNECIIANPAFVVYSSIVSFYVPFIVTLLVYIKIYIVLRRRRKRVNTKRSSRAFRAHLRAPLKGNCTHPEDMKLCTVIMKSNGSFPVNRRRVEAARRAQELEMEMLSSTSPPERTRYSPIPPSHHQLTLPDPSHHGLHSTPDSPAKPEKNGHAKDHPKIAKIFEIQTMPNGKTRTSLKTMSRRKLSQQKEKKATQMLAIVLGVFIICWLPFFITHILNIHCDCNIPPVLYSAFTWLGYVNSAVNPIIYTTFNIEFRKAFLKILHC
Method in brief: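 Compounds are added to dye-loaded, induced HEK293 T-REx cells coupled to calcium release via D2; after a 3 min kinetic read an EC80 dopamine stimulus is given and fluorescence is recorded for 3 more min.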

SMILES	inhibition
O=[N+]([O-])c1ccc(NCc2ccccc2)c2nonc12	active: 44%
O=c1[nH]c2ccccc2n1CCCN1CCC(n2c(=O)[nH]c3cc(Cl)ccc32)CC1	active: 97.4%
Cc1ccc(Cn2cccc(C(=O)Nc3nnc(C)s3)c2=O)cc1	17%
CCOC(=O)c1ccc(NC(=O)c2cccn(Cc3ccc(C)cc3)c2=O)cc1	1.3%
Oc1ccc(C[C@H]2NCCc3cc(O)c(O)cc32)cc1O	active: 84.8%
NS(=O)(=O)OC(CCc1ccccc1)C(Cl)(Cl)Cl (centres undefined)	active: 38.5%
CSc1ncc(C(=O)Nc2ccc(Cl)cc2C(=O)c2ccccc2)c(C)n1	-7.86%
CCOc1ccccc1CN(CCc1ccc2c(c1)OCO2)Cc1ccc(CC)cc1	1.43%
Cc1ccccc1-n1c(/C=C/c2ccc(O)cc2)nc2ccccc2c1=O	21.5%
CC(C)(C)c1ccc(OCC(=O)Nc2ccc(Cl)cc2C(=O)c2ccccc2)cc1	-3.14%
COc1ccc(Br)cc1CN1CCN(CCO)CC1	active: 54.7%
COc1ccc(NC(C)=O)cc1NC(=O)c1cccn(Cc2ccccc2)c1=O	-2.53%
Cc1cccc(NC2=NCCCS2)c1C	active: 38.4%
Cc1nnc(NC(=O)c2cccn(Cc3cccc([N+](=O)[O-])c3)c2=O)s1	28.2%
COc1ccc(-c2nc(CN3C(=O)CN=C(c4ccccc4)c4ccccc43)c(C)o2)cc1	5.4%
CN(C)P1(N(C)C)=Nc2c(c(N)nn2C)C(c2ccccc2)=N1	active: 31.5%
ON1C2CCCCC2N(O)C1c1ccccc1F (centres undefined)	active: 50%
CSc1ccc(CN2CCN(C(=O)COc3cccc(C)c3)CC2)cc1	-14%
Cc1ccc(C2CN(C)CC2C(=O)c2ccc(F)cc2)cc1 (centres undefined)	active: 70%
Cc1cccc(-n2c(/C=C/c3c[nH]c4ccccc34)nc3ccccc3c2=O)c1	3.35%
C=CCN1CCc2cccc3c2[C@H]1Cc1ccc(O)c(O)c1-3	active: 88.8%
COc1ccc(C(=O)N2CCCC2=O)cc1	active: 39.8%
Cc1cccc(Cn2cccc(C(=O)Nc3cc(C)on3)c2=O)c1	-16.4%
COc1ccc(C(C)=O)cc1CN1CC=C(c2ccccc2)CC1	active: 78.1%
O=[N+]([O-])c1ccc(N2CCNCC2)cc1NCc1ccco1	active: 61.3%
NCC(O)c1cc(O)c(O)cc1F (centres undefined)	active: 81.2%
Cc1cc(C)cc(N2C(=O)NC(=O)/C(=C\c3cccn3-c3ccc(Cl)cc3)C2=O)c1	active: 37.8%
CN(C)C1(CNC(=O)Nc2ccc(Cl)c(Cl)c2)CCCCC1	active: 54.3%
CC(C)[C@@]1(NC(=O)[C@@H]2C[C@@H]3c4cccc5[nH]cc(c45)C[C@H]3N(C)C2)O[C@@]2(O)[C@@H]3CCCN3C(=O)[C@H](Cc3ccccc3)N2C1=O	active: 101%
